Laboratory results as given in PubChem BioAssay (NCATS).
The shares of active, inactive and inconclusive entries below differ from those in the screen. Potencies of inconclusive entries are left out as doubtful fits. Active and inactive are the calls of the source. Calls follow the shape of the dose curve; as a rule, active = well fitted curve in the direction sought with a large enough effect; inconclusive = small, poorly fitted or top-dose-only effect, or another doubt; inactive = no such curve, though single readings can be large; an effect the other way counts as inactive or inconclusive.

Assays:
[1] = BET inhibitor-based combinations targeting novel dependencies in MECOM-rearranged (r) AML: OCI-AML3 cell line (AID 2202232); details: CellTiter-Glo luminescence, 48 h; Potency: OCI-AML3 viability; viability (% of control): at 46 µM (top of the series); also: nearly all actives have a fitted effect of over 35% in size
In short: (§1)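 500 cells/well; 11-pt dose curve; 48 h, standard incubator; CellTiter-Glo luminescence after 15 min RT; DMSO/empty-well normalization; AUC plus Z-AUC (mean-centered within each line).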

[2] = BET inhibitor-based combinations targeting novel dependencies in MECOM-rearranged (r) AML: HNT-34 cell line (AID 2202234); also: nearly all actives have a fitted effect of over 35% in size
In short: (§2)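 Cells were plated at 500 per well and exposed to each drug across an 11-point dose range for 48 hr at standard incubator conditions. Viability was read by CellTiter-Glo luminescence, and activity was expressed as AUC and per-cell-line Z-transformed AUC.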

[3] = BET inhibitor-based combinations targeting novel dependencies in MECOM-rearranged (r) AML: UCSD-AML1 cell line (AID 2202235); details: UCSD-AML1 AML cells viability, CellTiter-Glo, 48 h; viability (% of control): at 46 µM (top of the series); also: nearly all actives have a fitted effect of over 40% in size
In short: as §2

[4] = BET inhibitor-based combinations targeting novel dependencies in MECOM-rearranged (r) AML: AML-191 cell line (AID 2202236; also: nearly all actives have a fitted effect of over 35% in size)
In short: as §1

[5] = BET inhibitor-based combinations targeting novel dependencies in MECOM-rearranged (r) AML: AML-194 cell line (AID 2202237; also: nearly all actives have a fitted effect of over 40% in size)
In short: as §1
Potency is read from the fitted curve at half-maximal effect; tags tell the direction and shape of the fitted curve.

SMILES | Potency [1] | Potency [2] | Potency [3] | Potency [4] | Potency [5]
Cc1cc(C)cc(Oc2ccc(CNC(=O)[C@H](C)N)cc2C)c1 | inconclusive [inhibitor, partial curve, poor fit] | inconclusive [inhibitor, single point] | inconclusive [inhibitor, single point] | inconclusive [inhibitor, single point] | inconclusive [inhibitor, partial curve]
COC(c1ccccc1)(c1ccccc1)[C@H](Oc1nc(C)cc(C)n1)C(=O)O | inconclusive [inhibitor, full curve, poor fit] | inactive |  | inconclusive [inhibitor, single point] | 
CC(=O)OCC(=O)[C@@]1(O)CC[C@H]2[C@@H]3CCC4=CC(=O)C=C[C@]4(C)[C@H]3[C@@H](O)C[C@@]21C | inconclusive [inhibitor, full curve, poor fit] | inconclusive [inhibitor, partial curve, poor fit] |  | active: 0.833 µM | 
C=CC(=O)Nc1cc(N2CCN(CC)CC2)ccc1Nc1cc(N(C)C(=O)Nc2c(Cl)c(OC)cc(OC)c2Cl)ncn1 | inconclusive [inhibitor, partial curve] | inconclusive [inhibitor, single point] | inconclusive [inhibitor, single point] | inactive | 
CCN(CCO)CCCOc1ccc2c(Nc3cc(CC(=O)Nc4cccc(F)c4)[nH]n3)ncnc2c1 | inconclusive [inhibitor, full curve] | inconclusive [inhibitor, full curve] | inconclusive [inhibitor, partial curve] |  | inconclusive [inhibitor, partial curve]
